Results taken from PubChem BioAssay AID1508623 (National Center for Advancing Translational Sciences (NCATS), 2021).
In all, about 48,000 compounds went through this assay and about 450 (0.94%) were called active. Another 19% or so got no clear call; they are omitted. Calls come from the whole dose curve; as a rule, active = well fitted inhibition curve with a large enough effect; inconclusive = small, poorly fitted or top-dose-only effect; inactive = no such curve, though single readings can be large or run the other way. The list shows a part of the results.

test: Primary qHTS for Identification of Small Molecule Inhibitors of Huntingtin Promoter Activity; conditions: HEK293 HTT promoter firefly luciferase reporter (activity 0% = vehicle and -100% = no light), 24 h; series mostly up to 57.5 µM; activity change, negative = inhibition: at the top concentration; note: nearly all actives have a fitted effect of over 50% in size
How it was run: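 Luminescence was read after Dual-Glo reagent and a 10 min room-temperature incubation. Values were normalized to vehicle (0% activity) and zero RLU (-100% activity). Reporter HEK293 cells had been exposed to compounds (up to 57.5 uM final) for 24 h.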

Activity change, negative = inhibition, inactive:
CCOc1ccccc1NC(=O)C(CC)Sc1nc2ncccc2[nH]1 (stereo not drawn) -24.4%, COc1ccc(CNC(=O)C2=C(C)C(=O)OC23CCCCC3)cc1 -23.8%, COc1ccc(-n2ncc3c2ncn2nc(COc4ccc(Cl)cc4)nc32)cc1 -15.5%, CCCSc1nnc2c(n1)OC(c1ccc(Br)s1)Nc1ccccc1-2 (stereo not drawn) 26.6%, O=C(Cn1ncc2ccsc2c1=O)N1CCN(c2ccc(F)cc2)CC1 -13.8%, CCC1CN(C(=O)Nc2cccc3c2CCCC3)c2cc(Cl)ccc2O1 (stereo not drawn) -19.9%, Cc1cc(C(F)F)n2nc(C(=O)Nc3ccc(C(C)C)cc3)nc2n1 1.54%, Cc1oc(-c2ccccc2Cl)nc1CS(=O)CC(=O)NCc1ccc(Cl)cc1 (stereo not drawn) -12.4%, Cc1ccc(COc2ccc(-c3cc(C(F)(F)F)n4nc(C)cc4n3)cc2)cc1 -0.108%, Fc1ccc(-c2ccc(CNCCSc3nnnn3-c3ccccc3)o2)cc1 -7.8%, O=S(=O)(Nc1nc2ccccc2nc1Nc1ccccc1Br)c1ccccc1 -9.12%, COc1ccc(CNS(=O)(=O)c2cc3c4c(c2)CCN4C(=O)CC3)cc1 -37.1%, O=C(CSc1nc2c([nH]c3ccccc32)c(=O)n1-c1cccc(Cl)c1)NCC1CCCO1 (stereo not drawn) -16.3%, COc1cccc(CNC(=O)C(C)n2ncn3cccc3c2=O)c1OC (stereo not drawn) -3.44%, O=C(Cn1c2ncccc2c(=O)n1-c1ccccc1)NCc1ccccc1Cl -4.7%, CCOc1ccc(-c2cn(-c3ccc(C)cc3)c(SCC(=O)Nc3ccc(C)cc3)n2)cc1 -23.3%, Cc1ccc(NC(=O)Cc2coc3ccc(C(C)C)cc23)c(C)c1 -23.9%, COc1cccc(-n2c(SCC(=O)Nc3cccc(Cl)c3)nc3c(oc4ccccc43)c2=O)c1 -19%, Cc1c(NC(=O)CC(C)C)cccc1-c1nc2cccnc2s1 -28.7%, COc1ccccc1OC(=O)Oc1ccccc1OC 1.87%, COc1ccc(/C=C\C(=O)NC2CC(=O)N(c3ccc(F)cc3)C2)cc1OC (stereo not drawn) 8.35%, CS(=O)(=O)c1oc(-c2ccc(F)cc2)nc1S(=O)(=O)c1ccc(Cl)cc1 1.28%, O=C(CSc1nc2c(sc3ccccc32)c(=O)n1CCCC(=O)NC1CCCC1)Nc1ccc(F)cc1 -14%, O=C(NCc1ccc(F)cc1)C1CCCN(c2ncnc3onc(-c4ccc(F)cc4)c23)C1 (stereo not drawn) -21.9%, CCOC(=O)CNC(=O)c1ccc(-c2nn(C)c(=O)c3ccccc23)cc1 30.1%, CC(=O)Nc1ccc(C(=O)O)cc1 8.68%, CCc1ccc(NCc2cc3ccc(OC)cc3n(CC(=O)Nc3ccc(C(C)C)cc3)c2=O)cc1 -31.6%, Cc1ccc(NC(=O)Cn2nnc(-c3nc(-c4ccncc4)no3)c2N)c(C)c1 0.278%, CC(NC(=O)C1CCN(C(=O)c2ccc(-n3ccc4ccccc43)s2)CC1)c1ccccc1 (stereo not drawn) -15.2%, COc1ccccc1NC(=O)C1=C(C)Nc2nc(SCc3ccc(Cl)cc3)nn2C1c1ccccc1Cl (stereo not drawn) -17.3%, CCOc1ccc(OC(=O)c2cn(-c3cccc(OC)c3)c(=O)c3ccccc23)cc1 -17.2%, CC1CCN(C(=O)c2cc3c(=O)n(C)c4ccccc4c3s2)CC1 17.6%, CCOC(=O)c1c(NC(C)=O)c2c3c(sc2n1Cc1ccc(Cl)cc1)CCCC3 -8.87%, COc1cc(C2NC(=O)N(C)C3=C2C(=O)N(c2cccc(Cl)c2)C3)ccc1O (stereo not drawn) -0.639%, CC(=O)c1cccc(NC(=O)C2=CC(c3ccc4c(c3)OCO4)=NS(=O)(=O)N2C)c1 -29.4%, Fc1ccccc1-n1ncc2c1ncn1nc(-c3ccccc3Cl)nc21 62.6%, Cc1cccc(CNC(=O)C(=O)Nc2ccccc2C)c1 22.4%, CC1CCCCN1CCCNC(=O)c1[nH]c2ccccc2c1Sc1ccc(Cl)cc1 (stereo not drawn) -24.3%, Cc1ccc(CNC(=O)c2ccc(CSCc3ccccc3Cl)o2)cc1 -7.49%, Cc1ccc(S(=O)(=O)NCC(c2ccc(N(C)C)cc2)N2CCc3ccccc32)cc1C (stereo not drawn) -22.8%, Cc1cccc(C)c1NC(=O)CSc1nc2ncccc2o1 -1.64%, CC(=O)N1CCc2cc(CNC(=O)Nc3cc(Cl)ccc3C)ccc21 -25.6%, COc1ccc(Cn2c(CCC(=O)Nc3cccc(OC)c3)nc3cccnc32)cc1 -25.1%, CCc1ccc(CNC(=O)C2CCN(c3nc4ccccc4nc3C(F)(F)F)CC2)cc1 -4.6%, Cc1ccc(NC(=O)c2c(NC(=O)Cc3ccccc3)sc3c2CCC3)cc1 -10.2%, COc1ccc2cc(-c3nc(Cl)c4c5c(sc4n3)CCCC5)c(=O)oc2c1 -6.35%, CN(C)c1ccc(-c2nc3cnccn3c2Nc2cccc(C(F)(F)F)c2)cc1 -1.19%, COc1ccc(NC(=O)Cn2c(=O)n(Cc3ccco3)c(=O)c3cc(OC)c(OC)cc32)cc1 -4.84%, Cc1cc2c(cc1S(=O)(=O)CCC(=O)N1CCCC(C)C1)OCC(=O)N2 (stereo not drawn) -13.6%, Cc1ccc(-n2ncc(C(=O)NCCN3CCOCC3)c2C2CCN(C(=O)OC(C)(C)C)CC2)c(C)c1 -11%, COCCn1c(CCC(=O)Nc2ccc(C)c(Cl)c2)nc2cccnc21 10%, Clc1ccc2nc(NCc3ccccc3)c3nncn3c2c1 -9.73%, CC1CCC(NC(=O)c2ccc3c(c2)N(Cc2ccccc2)C(=O)c2ccccc2S3(=O)=O)CC1 (stereo not drawn) 19.5%, COc1ccccc1CNC(=O)CCc1c(C)nc2c(c(C)nn2-c2ccc(C)c(C)c2)c1C -78.4%, CC(C)(C)OC(=O)N1CCC(c2c(C(=O)NCc3ccccc3)cnn2-c2ccccc2)CC1 -6.5%, CCCCn1c(=N)c(S(=O)(=O)c2ccc(Cl)cc2)cc2c(=O)n3cccc(C)c3nc21 -2.76%, Cc1cccc(Nc2c(-c3cccs3)nc3nc(C)cc(C)n23)c1 31.5%, CCc1ccc(CNC(=O)c2cc3c(=O)n(CC)c4ccccc4c3s2)cc1 -0.82%, O=C(NC(=O)c1ccccc1)Nc1ccc(-n2nc(C(F)(F)F)cc2C(F)(F)F)cc1 76.1%, COc1ccc(OC)c(NC(=O)Cn2c(=O)n(CC3CCCO3)c(=O)c3cc(OC)c(OC)cc32)c1 (stereo not drawn) 1.9%, COc1ccc(NC(=O)CN(C)S(=O)(=O)c2ccc3c(c2)CCC(=O)N3)c(OC)c1 -14.7%, CCOc1ccccc1CNC(=O)CN1C(=O)CSc2ccc(S(=O)(=O)N3CCOCC3)cc21 -9.8%, CCc1ccc(NC(=O)CSc2nc3c(sc4ccccc43)c(=O)n2CCCOC)cc1 -4.43%, CCOC(=O)CNc1nc2ccccc2n2c(C)nnc12 11.8%, CCN1CCC[C@H]1CNC(=O)c1c(O)c(Cl)cc(Cl)c1OC 11.2%, CC(C)(C)CC(=O)OCC(=O)[C@@]1(O)CC[C@H]2[C@@H]3CCC4=CC(=O)C=C[C@]4(C)[C@H]3[C@@H](O)C[C@@]21C -17.5%, O=[N+]([O-])c1ccc(S(=O)(=O)NCc2nc3cccnc3n2Cc2ccccc2Cl)cc1 -18.9%, COc1ccc(C)cc1NC(=O)Cn1c(=O)nc(-c2ccccc2F)c2cc(Cl)ccc21 -2.18%, COC(=O)c1cc(NC(=O)C2CCCN(S(=O)(=O)c3c(C)n[nH]c3C)C2)cc(C(=O)OC)c1 (stereo not drawn) -11.2%, O=c1nc2c(-c3ccc(F)cc3Cl)n[nH]n2c2ccccc12 7.58%, COCc1cc(C)nc2sc(C(=O)Nc3ccc(OC(F)(F)F)cc3)c(N)c12 -21%, Cc1c(C(=O)OCC2CCCCC2)[nH]c2c1C(=O)CC(c1ccc(F)cc1)C2 (stereo not drawn) 5.9%, N#Cc1cccc(Nc2ncnc3c2cnn3-c2cccc(Cl)c2)c1 27%, O=C(CSc1nncn2c1cc1occc12)Nc1ccccc1C(F)(F)F -28.2%, CCc1ccccc1NC(=O)CN(c1cccc(C)c1C)S(C)(=O)=O -15.6%, CCOC(=O)c1c(C)[nH]c(CCC(=O)Nc2c(Cl)cc(OC)cc2OC)c1C -22.4%, CCCc1nc2nc(C)c(NS(=O)(=O)c3ccc(F)cc3)c(=O)n2[nH]1 -15.1%, Cc1cc(C(=O)N2CCN(c3ccc(F)cc3)CC2)c2c(C)nn(-c3cccc(Cl)c3C)c2n1 -13.2%, COc1ccc(CNC(=O)Cn2c(=O)nc(-c3ccccc3F)c3cc(Cl)ccc32)cc1OC -16.6%, COC(=O)c1cccc(Nc2c(-c3ccc(OC)cc3)nc3nc[nH]n23)c1 25.6%, Cc1ccc(C)c(NC(=O)Cn2nnc(C(=O)NCCc3ccccc3)c2N)c1 -19.8%, CCOC(=O)c1ccc(NC(=O)C(CC)Sc2nnc3c4ccccc4n(C)c3n2)cc1 (stereo not drawn) -3.81%, Cc1cc(C)c(NC(=O)Cn2c(=O)n(Cc3ccc4c(c3)OCO4)c(=O)c3ccccc32)c(C)c1 -4.79%, CCOc1ccccc1CNC(=O)c1cn(-c2ccc(OC)cc2)c(=O)c2ccccc12 -17.4%, CCOc1ccc(NC(C)=O)cc1 -5.39%, COc1cccc(CNC(=O)CSc2n[nH]c(-c3ccccc3Cl)n2)c1OC -15%, Cc1cccc(NC(=O)CSc2nc(=O)n(Cc3ccco3)c3c2CCC3)c1C -12%, CN1CCC[C@@H]1CCO[C@](C)(c1ccccc1)c1ccc(Cl)cc1 -6.45%, O=c1c(N2CCN(c3cccc(Cl)c3)CC2)csc2ccccc12 -23.9%, Cc1cc(C)cc(NC(=O)C(=O)NCCCN2CCOCC2)c1 -1.66%, Cc1ccc2cc3cc(C(=O)N4CCN(c5ccccc5)CC4)oc3nc2c1 -9.19%, CCOc1ccc(CN(C(=O)c2nc(SC)ncc2Cl)C2CCS(=O)(=O)C2)cc1 (stereo not drawn) -4.63%, O=C(Nc1nc2ccc(S(=O)(=O)N3CCCC3)cc2s1)c1ccc(F)cc1 -29.3%, CC1CCCCN1CCCNC(=O)c1ccc2c(c1)sc1nc(-c3ccc(F)cc3)cn12 (stereo not drawn) 1.41%, CCOC(=O)c1noc2ncnc(N3CCN(c4cccc(Cl)c4)CC3)c12 -26.5%, COc1ccc(-c2nc3nc(C)cc(N4CCN(c5cccc(C(F)(F)F)c5)CC4)n3n2)cc1 -8.35%, Cc1cc(C)cc(NC(=O)Cn2nnc(C(=O)NCc3ccccc3Cl)c2N)c1 -28%, COc1ccc(CCNC(=O)c2cc3c(s2)-c2c(C)cccc2OC3)c(OC)c1 -26.8%
